Some of the results follow. The full chains were built here from the parent and the listed change. Values near 0.05 are background.
B1: TEV protease; numbered along this chain (parent)
chain: MGESLFKGPRDYNPISSSICHLTNESDGHTTSLYGIGFGPFIITNKHLFRRNNGTLVVQSLHGVFKVKDTTTLQQHLVDGRDMIIIRMPKDFPPFPQKLKFREPQREERICLVTTNFQTKSMSSMVSDTSCTFPSGDGIFWKHWIQTKDGQCGSPLVSTRDGFIVGIHSASNFTNTNNYFTSVPKNFMELLTNQEAQQWVSGWRLNADSVLWGGHKVFMVKPEEPFQPVKEATQL

Variants of: B1
Assay: raw area under fraction-flipped curve 0-4 h after induction (AUC4h, not background-subtracted), DNA-recorder readout of cleavage of the substrate (dimensionless); higher = more cleavage of the substrate by the protease variant
Conditions: temperature: 34 °C; time window: 0-4 h after rhamnose induction
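Note: Bxb1 expression induced with 0.2% (w/v) L-rhamnose at OD600 near 0.5, cultures sampled hourly, flipped fraction per protease–substrate barcode pair counted by paired-end Illumina sequencing.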

| Variant | area with substrate ENLDFQS | area with substrate ENLFFQS | area with substrate ENLHFQS | area with substrate ENLKFQS | area with substrate ENLNFQS | area with substrate ENLPFQS | area with substrate ENLQFQS | area with substrate ENLSFQS | area with substrate ENLEFQS | area with substrate ENLGFQS | area with substrate ENLIFQS | area with substrate ENLRFQS | area with substrate ENLTFQS | area with substrate ENLWFQS | area with substrate ENLLFQS | area with substrate ENLVFQS | area with substrate ENLMFQS |
| --- | --- | --- | --- | --- | --- | --- | --- | --- | --- | --- | --- | --- | --- | --- | --- | --- | --- |
| MGESLFKGPRDYNPISSSICHLTNESDGHTTSLYGIGFGPFIITNKHLFRRNNGTLVVQSLHGVFKVKDTTTLQQHLVDGRDMIIIRMPKDFPPFPQKLKFREPQREERICLCTTNFQTKSMSSMVSDTSCTFPSGDGIFWKHWIQTKDGQCGSPLVSTRDGFIVGIHSASNFTNTNNYFTSVPKNFMELLTNQEAQQWVSGWRLNADSVLWGGHKVFMVKPEEPFQPVKEATQL [V113C] | 0.0677 | 0.101 | 0.0565 | 0.0716 | 0.0755 | 0.073 | 0.057 | 0.0583 |  |  |  |  |  |  |  |  |  |
| MGESLFKGPRDYNPISSSICHLTNESDGHTTSLYGIGFGPFIITNKHLFRRNNGTLVVQSLHGVFKVKDTTTLQQHLVDGRDMIIIRMPKDFPPFPQKLKFREPQREERICLVTTNFQTKSMSSMVSDTSCTFPSGDGIFWKHWIQTKDGQCGSMLVSTRDGFIVGIHSASNFTNTNNYFTSVPKNFMELLTNQEAQQWVSGWRLNADSVLWGGHKVFMVKPEEPFQPVKEATQL [P155M] | 0.0673 | 0.078 | 0.0477 |  | 0.0598 | 0.0557 | 0.0673 | 0.0601 | 0.0522 | 0.0754 | 0.0572 | 0.062 | 0.0593 | 0.0537 |  |  |  |
| MGESLFKGPRDYNPISSSICHLTNESDGHTTSLYGIGFGPFIITNKHLFRRNNGTLVVQSLHGVFKVKDTTTLQQHLVDGRDMIIIRMPKDFPPFPQKLKFREPQREERICLVTTNFQTKSMSSMVSDTSCTFPSGDGIFWKHWIQTKDGQCGSPLVSTRDGFIVGIHSASNFTNTNNYFTSVPKNFLELLTNQEAQQWVSGWRLNADSVLWGGHKVFMVKPEEPFQPVKEATQL [M188L] | 0.0522 | 0.0749 | 0.0807 | 0.0764 |  | 0.0672 | 0.0488 | 0.0777 |  |  | 0.0557 |  |  |  | 0.0544 | 0.0812 |  |
| MGESLFKGPRDYNPISSSICHLTNESDGHTTSLYGIGFGPFIITNKHLFRRNNGTLVVQSLHGVFKVKDTTTLQQHLVDGRDMIIIRMPKDFPPFPQKLKFREPQREERICLVTTNFQTKSMSSMVSDTSCTFPSGDGIFWKHWCQTKDGQCGSPLVSTRDGFIVGIHSASNFTNTNNYFTSVPKNFMELLTNQEAQQWVSGWRLNADSVLWGGHKVFMVKPEEPFQPVKEATQL [I145C] | 0.0623 | 0.107 | 0.0728 | 0.097 | 0.0724 |  | 0.0871 | 0.0588 | 0.0706 | 0.0723 | 0.0754 | 0.0703 |  | 0.0752 |  | 0.0827 | 0.0817 |
| MGESLFKGPRDYNPISSSICHLTNESDGHTTSLYGIGFGPFIITNKHLFRRNNGTLVVQSLHGVFKVKDTTTLQQHLVDGRDMIIIRMPKDFPPFPQKLKFREPQREERICLVTTNFQTKSMSSMVSDTSCTFPSGDGIFWKHTIQTKDGQCGSPLVSTRDGFIVGIHSASNFTNTNNYFTSVPKNFMELLTNQEAQQWVSGWRLNADSVLWGGHKVFMVKPEEPFQPVKEATQL [W144T] | 0.0739 | 0.0557 | 0.0749 | 0.0664 | 0.0628 |  |  | 0.0436 | 0.0487 |  |  |  |  |  |  | 0.0787 | 0.0917 |
| MGESLFKGPRDYNPISSSICHLTNESDGHTTSLYGIGFGPFIITNKHLFRRNNGTLVVQSLHGVFKVKDTTTLQQHLVDGRDMIIIRMPKDFPPFPQKLKFREPQREERICLVTTNFQTKSMSSMVSDTSCTFPSGDGIFWKHWIQTKDGQCGSPLVSTRDGFIVGIHSASNFTNTNNYFTSVPPNFMELLTNQEAQQWVSGWRLNADSVLWGGHKVFMVKPEEPFQPVKEATQL [K185P] | 0.061 | 0.0933 |  |  | 0.0681 | 0.0647 | 0.0849 | 0.0923 |  |  |  | 0.0798 |  |  |  |  |  |
| MGESLFKGPRDYNPISSSICHLTNESDGHTTSLYGIGFGPFIITNKHLFRRNNGTLVVQSLHGVFKVKDTTTLQQHLVDGRDMIIIRMPKDFPPFPQKLKFREPQREERICLVTTNFQTKSMSSMVSDTSCTFPSPDGIFWKHWIQTKDGQCGSPLVSTRDGFIVGIHSASNFTNTNNYFTSVPKNFMELLTNQEAQQWVSGWRLNADSVLWGGHKVFMVKPEEPFQPVKEATQL [G136P] | 0.0594 |  |  |  |  | 0.0577 | 0.0623 | 0.0571 |  | 0.0732 | 0.0589 | 0.053 |  | 0.0412 | 0.0571 |  |  |
| MGESLFKGPRDYNPISSSICHLTNESDGHTTSLYGIGFGPFIITNKHLFRRNNGTLVVQSLHGVFKVKDTTTLQQHLVDGRDMIIIRMPKDFPPFPQKLKFREPQREERICLVTTNFQTKSMSSMVSDTSCTFPSGDGIFWKHWIQTKDGQCYSPLVSTRDGFIVGIHSASNFTNTNNYFTSVPKNFMELLTNQEAQQWVSGWRLNADSVLWGGHKVFMVKPEEPFQPVKEATQL [G153Y] | 0.0577 | 0.0539 | 0.0427 | 0.0532 | 0.0468 | 0.06 |  | 0.0545 | 0.048 | 0.0415 | 0.0546 |  |  | 0.0484 |  |  |  |
| MGESLFKGPRDYNPISSSICHLTNESDGHTTSLYGIGFGPFIITNKHLFRRNNGTLVVQSLHGVFKVKDTTTLQQHLVDGRDMIIIRMPKDFPPFPQKLKFREPQREERICLVTTNFQTKSMSSMVSDTSCTFPSGDGIFWKHWIQTKDGQCGSPLVSGRDGFIVGIHSASNFTNTNNYFTSVPKNFMELLTNQEAQQWVSGWRLNADSVLWGGHKVFMVKPEEPFQPVKEATQL [T159G] | 0.0561 |  | 0.006 | 0.0735 | 0.0625 |  | 0.0587 | 0.062 | 0.0729 |  | 0.0833 |  |  | 0.0723 | 0.0737 | 0.094 |  |
| MGESLFKGPRDYNPISSSICHLTNESDGHTTSLYGIGFGPFIITNKHLFRRNNGTLVVQSLHGVFKVKDTTTLQQHLVDGRDMIIIRMPKDFPPFPQKLKFREPQREERICLVTTNFQTKSMSSMVSDTSCTFPSGDGIFWKHWIQYKDGQCGSPLVSTRDGFIVGIHSASNFTNTNNYFTSVPKNFMELLTNQEAQQWVSGWRLNADSVLWGGHKVFMVKPEEPFQPVKEATQL [T147Y] | 0.074 |  |  |  | 0.0404 | 0.0431 | 0.0955 |  |  | 0.0624 |  |  |  |  | 0.0331 |  |  |

Source: the supplement of paper PMC12217912
